Measured values published in publication PMC10442006.
No constants are given. Whether binding was seen depends on the method and setting. Some results given as binding are weak or reduced against the parent protein; the word gives no strength. Tags and fused reporters may be left off the sequences shown.

By UniProt entry, the sequences of proteins in these tests, tags left out.
UniProt A4GSN8: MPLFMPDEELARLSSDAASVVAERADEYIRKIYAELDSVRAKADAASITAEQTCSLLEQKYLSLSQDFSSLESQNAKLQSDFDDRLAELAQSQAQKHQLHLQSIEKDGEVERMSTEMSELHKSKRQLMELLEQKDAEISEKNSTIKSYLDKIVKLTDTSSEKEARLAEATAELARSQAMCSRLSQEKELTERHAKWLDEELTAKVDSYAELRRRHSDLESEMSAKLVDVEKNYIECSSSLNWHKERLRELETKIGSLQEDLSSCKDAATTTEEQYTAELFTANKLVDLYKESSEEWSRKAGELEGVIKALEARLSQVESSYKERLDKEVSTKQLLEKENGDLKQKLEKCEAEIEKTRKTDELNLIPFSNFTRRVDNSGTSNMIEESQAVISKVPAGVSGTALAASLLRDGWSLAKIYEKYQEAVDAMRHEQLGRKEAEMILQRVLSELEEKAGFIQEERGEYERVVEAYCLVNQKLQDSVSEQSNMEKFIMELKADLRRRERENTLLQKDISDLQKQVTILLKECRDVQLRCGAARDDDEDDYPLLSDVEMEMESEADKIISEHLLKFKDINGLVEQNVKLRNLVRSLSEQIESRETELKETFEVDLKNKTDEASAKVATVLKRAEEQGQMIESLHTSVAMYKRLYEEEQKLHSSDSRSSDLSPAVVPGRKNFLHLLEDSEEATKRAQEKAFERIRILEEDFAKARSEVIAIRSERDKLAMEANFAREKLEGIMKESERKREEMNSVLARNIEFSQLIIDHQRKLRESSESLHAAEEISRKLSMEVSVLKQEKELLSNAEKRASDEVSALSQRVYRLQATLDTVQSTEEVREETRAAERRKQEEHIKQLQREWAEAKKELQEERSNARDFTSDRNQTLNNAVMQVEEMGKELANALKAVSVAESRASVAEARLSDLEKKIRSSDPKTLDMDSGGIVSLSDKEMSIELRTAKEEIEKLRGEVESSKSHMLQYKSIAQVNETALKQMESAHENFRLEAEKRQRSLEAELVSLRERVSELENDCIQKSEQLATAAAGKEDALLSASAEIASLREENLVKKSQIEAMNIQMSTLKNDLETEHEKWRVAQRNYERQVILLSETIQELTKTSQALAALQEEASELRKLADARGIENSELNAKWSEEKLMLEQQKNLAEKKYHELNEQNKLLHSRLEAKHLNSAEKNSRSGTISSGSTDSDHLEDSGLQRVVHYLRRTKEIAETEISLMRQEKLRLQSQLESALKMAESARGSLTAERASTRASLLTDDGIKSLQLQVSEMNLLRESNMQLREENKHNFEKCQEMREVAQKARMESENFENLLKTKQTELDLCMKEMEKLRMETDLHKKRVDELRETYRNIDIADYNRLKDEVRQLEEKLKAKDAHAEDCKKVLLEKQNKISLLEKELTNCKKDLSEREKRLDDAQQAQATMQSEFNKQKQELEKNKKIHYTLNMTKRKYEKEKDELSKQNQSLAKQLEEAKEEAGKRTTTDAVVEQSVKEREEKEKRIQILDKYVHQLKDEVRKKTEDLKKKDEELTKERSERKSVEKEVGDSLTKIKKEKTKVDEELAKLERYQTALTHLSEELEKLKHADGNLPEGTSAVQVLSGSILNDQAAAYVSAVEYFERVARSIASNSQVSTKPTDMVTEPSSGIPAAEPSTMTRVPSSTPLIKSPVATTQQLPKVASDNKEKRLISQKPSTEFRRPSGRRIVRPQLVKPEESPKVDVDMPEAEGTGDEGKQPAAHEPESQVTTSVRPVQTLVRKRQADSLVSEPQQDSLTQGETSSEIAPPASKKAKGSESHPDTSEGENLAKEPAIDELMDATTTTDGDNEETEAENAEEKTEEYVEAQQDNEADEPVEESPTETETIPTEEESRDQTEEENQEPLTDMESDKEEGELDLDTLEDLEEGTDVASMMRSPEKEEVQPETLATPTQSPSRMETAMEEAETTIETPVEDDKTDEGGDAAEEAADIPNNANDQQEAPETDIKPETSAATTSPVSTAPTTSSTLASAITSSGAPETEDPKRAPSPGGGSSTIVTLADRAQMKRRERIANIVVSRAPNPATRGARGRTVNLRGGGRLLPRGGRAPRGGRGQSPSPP

Experiments:
Assay in all cases: two-hybrid; NUA or ESD4 on the GAL4 AD (pGADT7), SnRK2s on the GAL4 BD (pGBKT7), co-transformed into S. cerevisiae AH109; growth on -Leu/-Trp/-His (with 3-AT) or -Leu/-Trp/-His/-Ade
[1] = target: T1, SnRK2.5 fused to the GAL4 BD (Arabidopsis thaliana) (UniProt Q9FFP9)
T1 sequence: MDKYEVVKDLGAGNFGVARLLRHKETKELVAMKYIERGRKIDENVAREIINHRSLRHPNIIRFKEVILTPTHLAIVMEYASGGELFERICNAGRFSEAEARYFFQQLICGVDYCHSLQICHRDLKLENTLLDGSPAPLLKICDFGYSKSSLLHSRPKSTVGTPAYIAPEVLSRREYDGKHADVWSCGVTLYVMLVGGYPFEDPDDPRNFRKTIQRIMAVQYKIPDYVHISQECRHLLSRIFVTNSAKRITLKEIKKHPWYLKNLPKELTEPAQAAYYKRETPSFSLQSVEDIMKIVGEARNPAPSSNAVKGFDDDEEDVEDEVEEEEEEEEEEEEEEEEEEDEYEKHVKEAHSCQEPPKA

[2] = target: T2, SnRK2.7 fused to the GAL4 BD (Arabidopsis thaliana) (UniProt Q9SMQ4)
T2 sequence: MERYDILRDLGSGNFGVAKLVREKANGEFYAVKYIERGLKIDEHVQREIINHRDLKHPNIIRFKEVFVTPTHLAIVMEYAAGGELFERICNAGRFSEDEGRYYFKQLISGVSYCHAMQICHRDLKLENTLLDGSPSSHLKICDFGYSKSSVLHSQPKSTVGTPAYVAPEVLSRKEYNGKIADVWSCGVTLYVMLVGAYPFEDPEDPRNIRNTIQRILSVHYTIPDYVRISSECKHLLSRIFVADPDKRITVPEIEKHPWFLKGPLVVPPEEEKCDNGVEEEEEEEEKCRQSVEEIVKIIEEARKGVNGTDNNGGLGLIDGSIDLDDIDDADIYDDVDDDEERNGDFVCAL

[3] = target: T3, SnRK2.3 fused to the GAL4 BD (Arabidopsis thaliana) (UniProt Q39193)
T3 sequence: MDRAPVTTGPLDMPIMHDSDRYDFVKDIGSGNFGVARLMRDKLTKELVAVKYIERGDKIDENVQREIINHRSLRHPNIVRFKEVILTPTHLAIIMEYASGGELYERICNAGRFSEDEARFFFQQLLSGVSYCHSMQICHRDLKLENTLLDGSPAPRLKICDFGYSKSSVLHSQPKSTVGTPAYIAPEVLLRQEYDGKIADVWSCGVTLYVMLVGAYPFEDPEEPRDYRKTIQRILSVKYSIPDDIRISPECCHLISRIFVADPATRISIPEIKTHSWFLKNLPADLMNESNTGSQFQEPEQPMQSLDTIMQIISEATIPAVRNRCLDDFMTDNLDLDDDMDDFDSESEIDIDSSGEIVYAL

[4] = target: T4, SnRK2.8 fused to the GAL4 BD (Arabidopsis thaliana) (UniProt Q9M9E9)
T4 sequence: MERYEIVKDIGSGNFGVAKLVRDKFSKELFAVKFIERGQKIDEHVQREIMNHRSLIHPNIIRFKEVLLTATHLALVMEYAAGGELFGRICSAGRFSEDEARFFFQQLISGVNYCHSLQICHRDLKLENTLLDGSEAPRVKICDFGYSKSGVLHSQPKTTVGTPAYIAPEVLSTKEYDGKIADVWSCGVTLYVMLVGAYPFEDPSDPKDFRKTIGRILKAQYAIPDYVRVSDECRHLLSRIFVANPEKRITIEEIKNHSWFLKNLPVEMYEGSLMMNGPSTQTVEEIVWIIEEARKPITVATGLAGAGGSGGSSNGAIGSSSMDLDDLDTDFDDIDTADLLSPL

[5] = target: T5, SnRK2.2 fused to the GAL4 BD (Arabidopsis thaliana) (UniProt Q39192)
T5 sequence: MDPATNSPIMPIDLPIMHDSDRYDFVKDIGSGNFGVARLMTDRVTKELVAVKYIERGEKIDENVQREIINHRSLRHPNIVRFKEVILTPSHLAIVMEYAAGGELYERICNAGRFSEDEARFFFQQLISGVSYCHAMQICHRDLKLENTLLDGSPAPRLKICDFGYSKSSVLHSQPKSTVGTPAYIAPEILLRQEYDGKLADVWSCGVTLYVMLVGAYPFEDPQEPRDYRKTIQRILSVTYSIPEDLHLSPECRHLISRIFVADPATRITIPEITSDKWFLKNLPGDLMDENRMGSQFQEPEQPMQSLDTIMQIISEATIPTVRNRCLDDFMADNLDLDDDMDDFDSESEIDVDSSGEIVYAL

[6] = target: T6, SnRK2.4 fused to the GAL4 BD (Arabidopsis thaliana) (UniProt P43291)
T6 sequence: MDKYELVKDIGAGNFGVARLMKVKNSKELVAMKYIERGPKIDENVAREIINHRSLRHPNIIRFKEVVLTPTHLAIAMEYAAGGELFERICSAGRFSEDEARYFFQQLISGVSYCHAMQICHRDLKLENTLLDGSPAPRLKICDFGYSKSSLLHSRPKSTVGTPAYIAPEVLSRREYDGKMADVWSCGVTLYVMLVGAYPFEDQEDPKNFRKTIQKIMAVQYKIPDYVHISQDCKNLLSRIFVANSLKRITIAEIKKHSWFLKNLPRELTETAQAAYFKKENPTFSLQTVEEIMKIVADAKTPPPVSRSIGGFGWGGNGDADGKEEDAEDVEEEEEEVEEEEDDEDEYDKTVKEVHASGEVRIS

binding [1]: no binding
binding [2]: no binding
binding [3]: binds
binding [4]: no binding
binding [5]: binds
binding [6]: no binding
Substance: NUCLEAR PORE ANCHOR (NUA) fused to the GAL4 AD (from UniProt A4GSN8 1-2093)
